Measured values published in PubChem BioAssay AID1508642 (National Center for Advancing Translational Sciences (NCATS), 2021).
Among all 43,000 compounds or so, about 200 (0.47%) were called active. Another 12% or so got no clear call; they are omitted. Calls come from the whole dose curve; as a rule, active = well fitted cell-killing curve with a large enough effect; inconclusive = small, poorly fitted or top-dose-only effect, or effect the other way; inactive = flat fitted curve, though single readings scatter. This is one part of the list.

Assay: Cell viability qHTS assay in S16 Pmp22-F2sN cells; note: nearly all actives have a fitted effect of over 65% in size
Details: S16 Pmp22-F2sN Schwann cells (luciferase reporters placed in the Pmp22 gene) viability, CellTiter-Glo, 24 h; series mostly up to 57.5 µM; activity change, negative = cytotoxicity: at the top concentration
Procedure, shortened: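 Seed 500-1,000 S16 Pmp22-F2sN cells per well in phenol-red-free DMEM with 10% heat-inactivated FBS; pin-add 23 nL compound; incubate 24 h at 37C; add CellTiter-Glo, wait 15 min protected from light; read luminescence.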
% is set by controls: 0 for no effect and ±100 for the full control effect.

| SMILES | activity change, negative = cytotoxicity |
| --- | --- |
| CC(C)(C)C(=O)NC1(C(F)(F)F)C(=O)Nc2c1c(=O)[nH]c(=O)n2-c1ccccc1 (configuration not stated) | inactive: 12.9% |
| CCOc1ccc(-n2nc3cc(C)c(NC(=O)c4cc(OCC)c(OCC)c(OCC)c4)cc3n2)cc1 | inactive: 1.76% |
| O=C1CN(C(=O)c2ccc(S(=O)(=O)N3CCCC3)cc2)C(c2ccccc2)c2cc(Br)ccc2N1 (configuration not stated) | inactive: -26% |
| CCOc1ccc(-c2nnc(SCC(=O)NCc3ccccc3)o2)cc1 | inactive: 5.14% |
| Cc1ccc(NC(=O)CN2CCSc3ccc(S(=O)(=O)N4CCCC4)cc32)cc1C | inactive: -4.96% |
| COc1ccc(Cc2nc3ccccc3n2Cc2ccccc2F)cc1 | inactive: -3.83% |
| CC(=O)c1ccc(NC(=O)CC(c2cccs2)N2Cc3ccccc3C2=O)cc1 (configuration not stated) | inactive: 10.5% |
| CCN(C(=O)Cn1cnc2sc(C)c(S(=O)(=O)N3CCN(c4ncccn4)CC3)c2c1=O)c1ccccc1F | inactive: 0.293% |
| CCOc1ccc(-c2cc(-c3nc(-c4ccc(OC)c(OC)c4)no3)[nH]n2)cc1 | inactive: 1.69% |
| Cc1ccccc1CSc1ncc(CO)n1Cc1ccc(F)cc1 | inactive: -0.131% |
| COc1ccc(-c2nnc(C3CCN(S(=O)(=O)c4ccc(C)c(C)c4)CC3)o2)cc1 | inactive: 3.31% |
| COc1ccc(CCNC(=O)CCc2c(C)c3cc4c(C)coc4c(C)c3oc2=O)cc1OC | inactive: 0.24% |
| CC(O)CNc1nc2c(c(=O)n(Cc3ccc(Cl)cc3)c(=O)n2C)n1C (configuration not stated) | inactive: -20.8% |
| CCOC(=O)c1ccc(NC(=O)c2ccc(=O)n(Cc3cccc(C)c3)c2)cc1 | inactive: -9.49% |
| COc1ccc(-c2cn3cccnc3n2)cc1NC(=O)c1cc(C)cc(C)c1 | inactive: 6.71% |
| Cc1cc(Cl)ccc1OCC(=O)N(Cc1ccco1)Cc1ccco1 | inactive: -1.1% |
| CCN(c1ccccc1)c1nnc(NC(=O)Nc2ccc(Br)cc2F)s1 | inactive: 8.86% |
| O=C(Nc1ccc(Br)cc1F)N1CCC2(CC1)Oc1ccccc1C(=O)N2Cc1ccccc1F | inactive: -2.48% |
| COc1ccc(C2C(C(=O)Nc3ccc(C)cc3C)=C(C)Nc3nc4ccccc4n32)c(OC)c1 (configuration not stated) | inactive: 8.89% |
| COc1ccc2occ(CC(=O)Nc3ccc(S(=O)(=O)Nc4nc(C)cc(C)n4)cc3)c2c1 | inactive: 1.47% |
| O=C1CSC2(C(=O)N(Cc3ccccc3)c3ccccc32)N1c1ccc(Cl)cc1 (configuration not stated) | inactive: 5.49% |
| CCOc1ccc2c(c1)NC(c1cccs1)=NC(c1ccc(F)cc1)=N2 | inactive: -19.6% |
| COc1cccc2c1Oc1ncccc1N(C(=O)CCC(=O)NCc1ccccc1Cl)C2 | inactive: 5.83% |

| SMILES | activity change, negative = cytotoxicity |
| --- | --- |
| O=C(CN1C(=O)COc2ccc(S(=O)(=O)Nc3ccccc3)cc21)Nc1cccc(Cl)c1 | inactive: 4.27% |
| COC(=O)c1ccc(Cn2nnc3c(=O)[nH]c(C4CCCN(S(=O)(=O)c5cccc(Cl)c5)C4)nc32)cc1 (configuration not stated) | inactive: -16.1% |
| CCC(C)NC(=O)C1=CC(c2ccc3c(c2)OCO3)=NS(=O)(=O)N1C (configuration not stated) | inactive: -0.654% |
| COC(=O)c1cc(NC(=O)Cn2nc(-c3ccc(C)c(C)c3)ccc2=O)cc(C(=O)OC)c1 | inactive: -15.6% |
| CC(C)(C)c1ccc(C(=O)N2CCCCC2CCN2CCCCC2)cc1 (configuration not stated) | inactive: -11.9% |
| Cc1ccc(OCCn2nnc3sc4c(c3c2=O)CCC(C)C4)cc1 (configuration not stated) | inactive: 9.53% |
| CCOc1ccc(C(=O)N2CCC(c3noc(-c4ccc(S(=O)(=O)N5CCCC5)cc4)n3)CC2)cc1 | inactive: -15.3% |
| CCc1c(-c2ccccc2)nc2ccccc2c1C(=O)NCc1ccc(C)cc1 | inactive: -14% |
| CN(C1CCCCC1)S(=O)(=O)c1ccc2c(c1)c(=O)c(C(=O)N1CCN(c3ccccc3F)CC1)cn2C | inactive: -0.937% |
| Cc1cc(C)cc(NS(=O)(=O)c2ccc3[nH]cc(C(=O)NCc4ccccc4Cl)c(=O)c3c2)c1 | inactive: 10.6% |
| COc1cc(NC(=O)Cn2c(=O)n(Cc3ccco3)c(=O)c3oc4ccccc4c32)cc(OC)c1 | inactive: -2.6% |
| CCOc1ccc(NC(=O)c2cc(=O)c3ccc(C)c(C)c3o2)cc1 | inactive: 2.41% |
| Cn1cnc(S(=O)(=O)N2CCC(C(=O)N3CCN(c4ccccc4F)CC3)CC2)c1 | inactive: -0.545% |
| CSc1cccc(NS(=O)(=O)c2cn(C)c(C)n2)c1 | inactive: -5.74% |
| Cc1cccc(N(CC(=O)Nc2ccccc2C(F)(F)F)S(=O)(=O)c2ccccc2)c1C | inactive: 7.3% |
| O=C(Nc1ccc(F)cc1)c1ccc2c(=O)n3c(nc2c1)CCCCC3 | inactive: -26.2% |
| COc1ccc(OC)c(C2CC(=O)Oc3c2c(=O)n(C)c2ccccc32)c1 (configuration not stated) | inactive: -13.8% |
| COc1ccc(Cl)cc1NC(=O)c1cn(C2CCCC2)c(=O)c2c1c1ccccc1n2C | inactive: -0.448% |
| COc1ccccc1C(=O)NC1(C(F)(F)F)C(=O)Nc2c1c(=O)[nH]c(=O)n2-c1ccc(F)cc1 (configuration not stated) | inactive: 5.29% |
| Cc1cccc(Cn2c(-c3cccc(Br)c3)nc3ccccc32)c1 | inactive: 0.0374% |
| CN(C)CCNC(=O)Cn1ccc2cc(S(=O)(=O)N3CCCCCC3)ccc21 | inactive: -4.35% |
| Cc1cc(Cl)ccc1OCC(=O)N(Cc1ccco1)Cc1ccccc1F | inactive: -1.02% |
| COCCCNC(=O)CSc1nc2c(sc3ccccc32)c(=O)n1CCc1ccc(OC)c(OC)c1 | inactive: 25% |

| SMILES | activity change, negative = cytotoxicity |
| --- | --- |
| CCOc1ccc(CNC(=O)C2CCCN(c3nnc(C)c4c(C)n(-c5ccccc5)nc34)C2)cc1 (configuration not stated) | inactive: -28% |
| CCOc1cc(C2NC(=O)c3c(sc4c3CCN(C)C4)N2)ccc1OC(=O)c1ccc(Br)cc1 (configuration not stated) | inactive: 11.8% |
| COc1ccc(-c2noc(-c3ccc(N4CCCC4)c([N+](=O)[O-])c3)n2)cc1OC | inactive: -4.74% |
| CCc1ccc(-n2nc(C)c3c(C(=O)N4CCN(c5ccccc5)CC4)cc(C)nc32)cc1 | inactive: 1.65% |
| COc1ccc(C)cc1NC(=O)c1cc2c(=O)n3cccc(C)c3nc2s1 | inactive: 9.52% |
| CCC(=O)N1CCCc2cc(S(=O)(=O)N3CCC(C(=O)NCc4ccc(F)cc4)CC3)ccc21 | inactive: -3.41% |
| Cc1cccc(C)c1-n1ncc(C(=O)O)c1C1CCN(C(=O)OC(C)(C)C)CC1 | inactive: 23.1% |
| Cc1nn2c(C)c(C(=O)NC(C)c3ccccc3)cnc2c1-c1ccc(F)cc1 (configuration not stated) | inactive: -16.9% |
| COc1ccc(NC(=O)c2ccco2)cc1NC(=O)C(C)(C)Oc1ccc(Cl)cc1 | inactive: 4.54% |
| CCOc1ccc(NC(=O)Cn2cnc3sc(C)c(S(=O)(=O)N4CCN(c5ccccc5OC)CC4)c3c2=O)cc1 | inactive: -19.9% |
| N#Cc1ccc(-c2cccs2)nc1SCc1ccc(Br)cc1 | inactive: 3.05% |
| COc1ccc(-n2nc(C(=O)N3CCCCC3C)c3c4ccccc4n(C)c3c2=O)cc1Cl (configuration not stated) | inactive: 6.49% |
| COc1ccc(CNC(=O)CN(C)S(=O)(=O)c2ccc3nc(C)sc3c2)cc1 | inactive: -0.159% |
| COc1cccc(C(=O)Nc2ccccc2C(=O)OCc2cc(=O)n3c4c(sc3n2)CCCC4)c1 | inactive: 1.41% |
| CC(C)N(C(=O)CSc1cn(CC(=O)N2CCCCCC2)c2ccccc12)C(C)C | inactive: -1.44% |
| Cc1coc2c(C)c3oc(=O)c(CCC(=O)NCCc4ccccc4F)c(C)c3cc12 | inactive: 29.5% |
| Cc1cc2c(cc1S(=O)(=O)Nc1cccc(C#N)c1)OCC(=O)N2 | inactive: -4.76% |
| COc1ccc(NC(=O)Cn2c(=O)n(CCC(=O)NCC3CCCO3)c(=O)c3cc(OC)c(OC)cc32)cc1 (configuration not stated) | inactive: -1.97% |
| CN(Cc1ccccc1)C(=O)c1ccc(CSc2nc3cccnc3n2Cc2ccccc2F)cc1 | inactive: -10.3% |
| COc1ccccc1Nc1sc(C(=O)c2ccc(F)cc2)c(N)c1S(=O)(=O)c1ccc(C)cc1 | inactive: -0.278% |
| COc1cccc(/C=C/c2nc(C#N)c(N3CCC(C(N)=O)CC3)o2)c1 | inactive: 2.98% |
| CCOc1ccc(CCNC(=O)c2cn(-c3ccc(OC)cc3)c(=O)c3ccccc23)cc1OCC | inactive: 6.23% |
| Cc1ccc(C2C=C(c3ccccc3)Nc3nc(NS(=O)(=O)c4ccccc4)nn32)cc1 (configuration not stated) | inactive: 9.22% |

| SMILES | activity change, negative = cytotoxicity |
| --- | --- |
| O=C(Cn1nnnc1-c1ccccc1F)Nc1ccc(OC(F)(F)F)cc1 | inactive: 1.59% |
| COc1ccc(CNC(=O)CCc2c(C)nc3c(c(C)nn3-c3ccccc3)c2C)cc1 | inactive: -2.74% |
| CCOC(=O)c1c(C)n(-c2ccc(OC)cc2)c2ccc(OC(=O)COc3ccccc3)cc12 | inactive: -18% |
| O=C(CSc1nccn1Cc1ccc(F)cc1)Nc1nc2ccccc2s1 | inactive: -9.84% |
| CCN(Cc1ccccc1)C(=O)C1CCN(S(=O)(=O)c2ccc3c(c2)CCCN3C(C)=O)CC1 | inactive: -2.76% |
| COc1cc(NC(=O)C2=CC(c3ccc(F)cc3)=NS(=O)(=O)N2C)cc(OC)c1OC | inactive: 1.73% |
| CC(C)c1nnc(N2C(=O)c3oc4ccccc4c(=O)c3C2c2ccccc2F)s1 (configuration not stated) | inactive: 10% |
| Cc1ccc(C2CC(=O)Nc3cc4c(cc32)OCCO4)cc1Br (configuration not stated) | inactive: -1.52% |
| COCCNC(=O)Cn1ccc2cc(S(=O)(=O)N3CCCCCC3)ccc21 | inactive: 0.188% |
| CCn1c(=O)c2c(nc3n2CCN3c2ccc(OC)cc2)n(C)c1=O | inactive: -29.8% |
| Cc1ccc(-c2noc(CCC(=O)N(C)c3ccccc3F)n2)cc1 | inactive: -1.88% |
| CCOc1ccc(CCNC(=O)c2cc(=O)[nH]c3ccc(S(=O)(=O)N4CCCCC4C)cc23)cc1OCC (configuration not stated) | inactive: -10.1% |
| Fc1ccccc1-c1nc(N2CCN(c3cccc(Cl)c3)CC2)c2ccccc2n1 | inactive: 2.02% |
| CC(C)(C)C1CCc2c(sc(NC(=O)C3c4ccccc4Oc4ccccc43)c2C(N)=O)C1 (configuration not stated) | inactive: 3.21% |
| COc1ccc(OC)c(CNC(=O)Nc2cn(CC(C)C)c(=O)c3ccccc23)c1 | inactive: -5.14% |
| CCC(=O)N1c2ccc(S(=O)(=O)CCC(=O)NCc3ccccc3OC)cc2CC1C (configuration not stated) | inactive: 11.9% |
| Cc1ccc(CN(C(=O)COc2ccccc2Cl)c2ccccn2)o1 | inactive: 5.14% |
| Cc1cccc(NC(=O)Cn2c(=O)n(Cc3ccc4c(c3)OCO4)c(=O)c3oc4ccccc4c32)c1C | inactive: 10.9% |
| CCOc1ccc(NC(=O)Cn2c(=O)n(Cc3ccc4c(c3)OCO4)c(=O)c3ccc(C(=O)NC4CCCCC4)cc32)cc1 | inactive: 1.44% |
| Cc1ccc(CNS(=O)(=O)c2ccc(C(=O)N(C)C)s2)cc1 | inactive: 31.6% |
| COC(=O)c1nnn(CC(=O)NC(=O)Nc2ccc(F)cc2)c1C(=O)OC | inactive: -3.52% |
| CC(=O)N1CCc2cc(Br)cc(S(=O)(=O)N3CCC(C(=O)Nc4cccc(C)c4C)CC3)c21 | inactive: 13.9% |
| Cc1ccc(CNC(=O)Nc2cc(C(=O)NCc3cccc(F)c3)ccc2N2CCCC2)cc1 | inactive: -1.53% |
